{"source": "the RNAGym collection of RNA variant scans (doi:10.7554/elife.90254)", "parents": {"B1": {"name": "OR4K15 (parent)", "chain": "GUUAACGGUCAUAGGCCAUGGAAACUAGGAGCACCAUUUCGCUGCCAGUGAAGAAAUGAACAAAGAAAAUCUGGGCCAGGCAGGCAUCAAAAGAAAUAGUCUUGCGCUCAACCAGAAAGUCUGUAAUCAUUUUAAGGGUA"}}, "note": "Read counts are not given, so values of variants with three or more changes are uncertain."}
{"variants_of": "B1", "assay": "self-cleavage, relative activity (ratio to wild type); higher = more cleavage; in vitro, sequencing; the parent is a self-cleaving ribozyme"}
{"variant": "A24C A51U A111G", "self-cleavage": 0.03}
{"variant": "A36G U108C U139A", "self-cleavage": 0.01}
{"variant": "A47G A60G U102C U131C", "self-cleavage": 1.22}
{"variant": "A69G A89G A129G U131C", "self-cleavage": 0.68}
{"variant": "U39C A56G A86G A96G", "self-cleavage": 0.97}
{"variant": "A13U A68G A82U", "self-cleavage": 0.22}
{"variant": "G44A A51U A82C U127A", "self-cleavage": 0.06}
{"variant": "A24G A33G A54G A69G U122C", "self-cleavage": 0.68}
{"variant": "A94G U100C C101U A114U U132C", "self-cleavage": 0.02}
{"variant": "A22G A60U A92G U100C A118G", "self-cleavage": 1.99}
{"variant": "A51G A60U C88A", "self-cleavage": 1.49}
{"variant": "A54G A86U U139C", "self-cleavage": 2.23}
{"variant": "A56G A66G U100C U130C", "self-cleavage": 2.64}
{"variant": "A22G A59G A63G A125U", "self-cleavage": 1.31}
{"variant": "G50A A51G A52G A68U U127C", "self-cleavage": 1.1}
{"variant": "U43C A51U A96U A111U A117G U132A", "self-cleavage": 0.02}
{"variant": "U87C A90G A96G", "self-cleavage": 0.47}
{"variant": "C25A A54G A55G A111G", "self-cleavage": 0}
{"variant": "U43A A67U A89G U103A U124A", "self-cleavage": 0.22}
{"variant": "U2G A63U A78U", "self-cleavage": 0.7}
{"variant": "A27G A60G C61G U108C A111G", "self-cleavage": 0}
{"variant": "G15A A60G C105A A114G", "self-cleavage": 0.01}
{"variant": "A27G A82U A92G", "self-cleavage": 0.26}
{"variant": "U2C U12C A56G U72C A89G", "self-cleavage": 0.28}
{"variant": "A23G A89C A114G A118G", "self-cleavage": 0.14}
{"variant": "U38C G83A A90G", "self-cleavage": 1.46}
{"variant": "U38C A94G G136U", "self-cleavage": 1.56}
{"variant": "A18U A60U U122C", "self-cleavage": 1.53}
{"variant": "U19C G41U G75A U122C", "self-cleavage": 0.02}
{"variant": "U26C A36U A62U U108C", "self-cleavage": 0.01}
{"variant": "C16A A55U A63G A68G U108C G137A", "self-cleavage": 0.01}
{"variant": "C35U U49A A125G", "self-cleavage": 0.18}
{"variant": "A22G U49A A66U A98U", "self-cleavage": 1.09}
{"variant": "A33G U103C U122C", "self-cleavage": 0.26}
{"variant": "A30G U102C A117G", "self-cleavage": 1.62}
{"variant": "A23C C45U U97C", "self-cleavage": 0.8}
{"variant": "A30G U43A U122A G136A", "self-cleavage": 1.79}
{"variant": "U2C U3C A64G", "self-cleavage": 1}
{"variant": "A55G A66G A111G", "self-cleavage": 0.05}
{"variant": "U43C A59G U87C A96G C113U", "self-cleavage": 0.01}
{"variant": "A23G U43C A90G", "self-cleavage": 0.85}
{"variant": "A47G A63G A116G A126G", "self-cleavage": 0.61}
{"variant": "A36C A78G U108G U122C", "self-cleavage": 0.01}
{"variant": "U26C A56G A68G A94G A117G", "self-cleavage": 1.33}
{"variant": "A36C C46U U132A", "self-cleavage": 1.91}
{"variant": "A52G A54U A69G A125C", "self-cleavage": 0.59}
{"variant": "A23G A68G U97C", "self-cleavage": 1.67}
{"variant": "A47U A56G G74A U131C", "self-cleavage": 0.18}
{"variant": "A5G A11G A36C A82G", "self-cleavage": 0.7}
{"variant": "U39C G79U A95G A129G", "self-cleavage": 0.06}
{"variant": "G7U U39C U122A", "self-cleavage": 1.12}
{"variant": "U9G U49C U122C", "self-cleavage": 0.32}
{"variant": "G28U A33U U37C A78G", "self-cleavage": 0.31}
{"variant": "U26C U37C U132C", "self-cleavage": 2.07}
{"variant": "A52U C77A A125G", "self-cleavage": 0.35}
{"variant": "A86G A91G A94G U102G", "self-cleavage": 0.25}
{"variant": "U26C A33U A59G A64G A116G", "self-cleavage": 0.39}
{"variant": "U43C A116G U120C U127C", "self-cleavage": 0.16}
{"variant": "A22G A23G A60U U132C", "self-cleavage": 2.04}
{"variant": "U9C A13G A125U", "self-cleavage": 1.78}
{"variant": "A82G A92C A126G", "self-cleavage": 0.53}
{"variant": "A51C A52G G73A A91G A118U U120C", "self-cleavage": 0.02}
{"variant": "U2C U39C A55G A78U A129G", "self-cleavage": 0.13}
{"variant": "G21C A22U A54G", "self-cleavage": 1.72}
{"variant": "A33G A69G A126G", "self-cleavage": 1.17}
{"variant": "A63G U127A U131C", "self-cleavage": 1.68}
{"variant": "U37C A52U A110G", "self-cleavage": 0.15}
{"variant": "A90G U103C U124C", "self-cleavage": 0.62}
{"variant": "A51G A54G A117G", "self-cleavage": 0.82}
{"variant": "A52G A92U U130A A135G", "self-cleavage": 1.59}
{"variant": "A11U A18U A47U A82U C85U U87C A90G U97C C113U", "self-cleavage": 0.01}
{"variant": "U43G A59G A68U U102C", "self-cleavage": 2.56}
{"variant": "A4G U49G A68G U70C U103C U127A", "self-cleavage": 0.37}
{"variant": "U12C U43C A92G", "self-cleavage": 0.98}
{"variant": "G21A U43C A51G A56G A67G A96G A118U A126U U127C", "self-cleavage": 0.06}
{"variant": "A22G A27G A63G A92U A140U", "self-cleavage": 0.78}
{"variant": "A86G A118G G119U U130C", "self-cleavage": 1.07}
{"variant": "A13G A66G U139C", "self-cleavage": 2.23}
{"variant": "A52G A90G G106C U120A", "self-cleavage": 0.04}
{"variant": "U43A A94G U132C", "self-cleavage": 1.32}
{"variant": "U9C A67G C107A A126G", "self-cleavage": 0.01}
{"variant": "U49C U100C U127A", "self-cleavage": 2.74}
{"variant": "A11U A27G U130C U132C", "self-cleavage": 0.92}
{"variant": "A18U A78G A96G", "self-cleavage": 0.26}
